Results published in the supplement of paper PMC12217912.
The other results are listed elsewhere or left out. Sequences were assembled here from the parent chain. Inactive controls read about 0.05.

B1: TEV protease; numbered along this chain (parent)
chain: MGESLFKGPRDYNPISSSICHLTNESDGHTTSLYGIGFGPFIITNKHLFRRNNGTLVVQSLHGVFKVKDTTTLQQHLVDGRDMIIIRMPKDFPPFPQKLKFREPQREERICLVTTNFQTKSMSSMVSDTSCTFPSGDGIFWKHWIQTKDGQCGSPLVSTRDGFIVGIHSASNFTNTNNYFTSVPKNFMELLTNQEAQQWVSGWRLNADSVLWGGHKVFMVKPEEPFQPVKEATQL

Variants of: B1
Test: raw area under fraction-flipped curve 0-4 h after induction (AUC4h, not background-subtracted), DNA-recorder readout of cleavage of the substrate (dimensionless); higher = more cleavage of the substrate by the protease variant
Details: temperature: 34 °C; time window: 0-4 h after rhamnose induction
Description: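 In vivo DNA recorder in E. coli TOP10(DE3) ΔrhaA at 34 °C. Each TEVp single-site mutant (parent TEVp 0) is paired with a single-site variant of the 7-mer TEVs (canonical ENLYFQ|S). The substrate sits between flexible linkers in a Bxb1-sfGFP-TEVs-SsrA fusion, so cleavage stabilises Bxb1 and speeds flipping of a recombination array, read by NGS. The value is the raw area under the fraction-flipped curve over 0-4 h after rhamnose induction (AUC4h), with ≥20 reads per time point. It is not background-subtracted; inactive controls average about 0.047.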
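Further: Bxb1 expression induced with 0.2% (w/v) L-rhamnose at OD600 near 0.5, cultures sampled hourly, flipped fraction per protease–substrate barcode pair counted by paired-end Illumina sequencing.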

Variant | area with substrate ENAYFQS | area with substrate ENCYFQS | area with substrate ENDYFQS | area with substrate ENEYFQS | area with substrate ENGYFQS | area with substrate ENHYFQS | area with substrate ENKYFQS | area with substrate ENNYFQS | area with substrate ENQYFQS | area with substrate ENSYFQS | area with substrate ENTYFQS | area with substrate ENVYFQS | area with substrate ENWYFQS | area with substrate ENMYFQS | area with substrate ENYYFQS | area with substrate ENFYFQS | area with substrate ENIYFQS | area with substrate ENPYFQS | area with substrate ENRYFQS
Q234G | 0.0428 | 0.0648 | 0.0717 | 0.0647 | 0.0665 | 0.0622 | 0.0598 | 0.0594 | 0.0596 | 0.0658 | 0.0727 | 0.118 | 0.086 |  |  |  |  |  | 
L77K |  | 0.0624 |  | 0.0549 | 0.0684 |  |  |  | 0.0661 | 0.0492 | 0.0492 | 0.0597 | 0.0591 | 0.0515 | 0.0858 |  |  |  | 
L77P |  | 0.0559 | 0.0823 | 0.0592 |  |  | 0.0638 |  | 0.0655 |  | 0.0131 |  |  | 0.0543 |  | 0.0582 | 0.0989 | 0.0737 | 0.0648
V217W | 0.0551 |  | 0.0577 |  | 0.0628 |  | 0.0644 | 0.0672 | 0.0624 | 0.0572 | 0.0571 | 0.0538 |  | 0.0614 | 0.0603 | 0.0668 | 0.0504 |  | 0.0584
F226D | 0.0572 |  | 0.0287 | 0.0636 | 0.0687 |  |  |  | 0.0357 |  |  |  |  |  |  | 0.0602 | 0.112 | 0.0417 | 
H215A | 0.0691 |  | 0.0618 |  | 0.0502 |  |  | 0.0696 | 0.0576 |  | 0.0458 |  |  |  | 0.0577 |  |  | 0.234 | 
P104H |  | 0.0589 | 0.0531 |  | 0.0668 | 0.0416 |  |  | 0.0407 | 0.0617 | 0.0513 | 0.0311 |  | 0.0614 |  | 0.0563 |  | 0.0379 | 
P104R |  | 0.0662 | 0.0659 | 0.0641 | 0.0564 | 0.0676 |  | 0.0655 | 0.0557 | 0.048 |  |  |  |  |  | 0.059 | 0.111 | 0.0607 | 
V220Q | 0.0926 | 0.0756 | 0.0678 | 0.0615 | 0.0628 | 0.0541 | 0.0447 | 0.0604 | 0.0587 | 0.0649 |  | 0.0836 | 0.0413 |  | 0.0606 | 0.0616 | 0.114 | 0.06 | 0.07
S60T |  | 0.0682 | 0.0641 | 0.0651 |  | 0.0621 | 0.0589 | 0.0578 | 0.0629 | 0.059 | 0.0597 | 0.08 | 0.0387 |  | 0.0629 | 0.0546 |  | 0.0777 | 0.0635
D208F | 0.038 | 0.0607 | 0.0595 | 0.0667 | 0.065 |  | 0.0605 |  | 0.0661 | 0.0613 | 0.0708 | 0.0544 |  | 0.0656 | 0.0466 | 0.0691 | 0.0679 | 0.0819 | 0.041
D208I | 0.074 | 0.0655 | 0.0493 | 0.0581 | 0.0608 | 0.0584 | 0.0701 | 0.0666 | 0.0506 | 0.0531 | 0.0586 | 0.0654 | 0.0613 |  | 0.0629 |  | 0.083 | 0.0525 | 0.0606
D208W | 0.0504 | 0.0655 | 0.062 | 0.0587 | 0.0602 | 0.0492 | 0.0529 |  | 0.061 | 0.0561 | 0.0424 | 0.0638 | 0.0932 |  | 0.0635 | 0.0525 | 0.12 |  | 
D208R | 0.0687 | 0.0553 | 0.0465 | 0.0642 | 0.0593 | 0.0544 | 0.0691 | 0.0525 | 0.0821 | 0.0602 |  |  |  | 0.0592 |  | 0.0475 |  |  | 0.0527
D208M | 0.0655 |  | 0.0605 | 0.0393 | 0.0614 | 0.0696 |  | 0.0674 | 0.0565 | 0.0647 | 0.0613 | 0.0641 |  | 0.0683 | 0.0561 |  |  | 0.0764 | 
D208T | 0.0705 | 0.0665 | 0.0676 | 0.0652 | 0.0596 |  | 0.0578 | 0.0538 | 0.0527 | 0.0528 | 0.0538 |  |  |  | 0.0552 |  |  |  | 0.0522
D208C | 0.0587 | 0.0528 | 0.045 | 0.0636 |  |  | 0.0627 | 0.0569 | 0.0655 | 0.0611 | 0.0568 | 0.0622 |  |  |  | 0.0848 | 0.0623 | 0.0657 | 0.056
V58P |  | 0.0425 |  | 0.0361 | 0.0356 |  |  | 0.0394 |  |  |  | 0.026 |  |  |  |  |  |  | 0.0179
K216N | 0.0581 |  | 0.0611 | 0.0617 |  | 0.0823 | 0.0628 |  | 0.0515 | 0.0577 | 0.061 | 0.0849 | 0.078 | 0.0604 |  | 0.0713 |  | 0.0453 | 0.0817
K216T | 0.0672 | 0.0707 | 0.0589 |  | 0.0629 |  |  | 0.0619 |  | 0.069 |  | 0.0862 |  | 0.0736 |  | 0.0657 |  |  | 
K216C | 0.06 |  |  | 0.0685 | 0.0448 | 0.0511 |  | 0.0643 |  | 0.0594 |  |  |  |  |  | 0.0586 | 0.103 |  | 
K216A | 0.0559 | 0.0766 |  |  | 0.0563 | 0.058 | 0.0548 | 0.0574 | 0.0576 |  | 0.0643 |  |  |  | 0.0571 |  |  |  | 0.0237
K216P | 0.0555 |  | 0.0571 | 0.0591 | 0.0649 | 0.0433 |  |  |  |  | 0.0642 | 0.0535 | 0.0587 | 0.0919 |  |  |  |  | 
W212V | 0.067 | 0.0312 | 0.07 | 0.0607 |  |  | 0.0615 | 0.0753 | 0.0609 | 0.0654 |  | 0.0742 | 0.0571 |  |  | 0.057 |  | 0.0723 | 0.0612
W212E | 0.058 | 0.0574 | 0.0691 | 0.0555 |  | 0.0489 |  | 0.0683 | 0.0652 | 0.0786 | 0.0676 | 0.0813 |  |  |  | 0.0566 |  |  | 0.0674
M88P |  | 0.033 | 0.0558 |  | 0.0337 |  |  |  |  | 0.0602 | 0.0486 |  |  | 0.0526 |  |  |  | 0.0516 | 
A207C | 0.0474 |  | 0.0651 | 0.0609 | 0.0723 | 0.0478 |  |  |  | 0.0592 |  | 0.0864 | 0.0502 |  | 0.0547 |  |  | 0.0641 | 0.0576
A207M | 0.0663 |  | 0.0553 |  |  |  |  |  | 0.0578 | 0.0607 |  | 0.0759 |  |  | 0.0496 |  |  | 0.0484 | 
A207I | 0.0599 |  |  | 0.0841 | 0.0643 |  | 0.0509 | 0.0591 | 0.0506 |  |  |  |  | 0.0659 |  |  |  |  | 0.0658
V64Y |  | 0.0423 | 0.0565 | 0.0719 | 0.0522 |  | 0.0556 |  | 0.0537 | 0.0628 | 0.0349 | 0.0837 |  |  |  | 0.0806 | 0.0963 | 0.0588 | 
